Experimental data taken from the BET-seq Pho4 binding data (Le et al. 2018).
Some of the results follow. These are noisy estimates, calculated here from bound and input reads.

Biological target: T1, Pho4 (S. cerevisiae) (UniProt P07270)
T1 sequence: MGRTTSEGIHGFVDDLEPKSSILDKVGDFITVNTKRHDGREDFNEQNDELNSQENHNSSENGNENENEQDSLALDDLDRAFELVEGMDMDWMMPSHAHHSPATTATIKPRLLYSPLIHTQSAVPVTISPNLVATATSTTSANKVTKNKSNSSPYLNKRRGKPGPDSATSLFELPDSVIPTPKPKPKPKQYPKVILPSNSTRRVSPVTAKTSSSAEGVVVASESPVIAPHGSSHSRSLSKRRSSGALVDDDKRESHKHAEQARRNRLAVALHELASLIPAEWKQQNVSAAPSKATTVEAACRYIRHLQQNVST
Assay: relative binding free energy (BET-seq); higher = weaker binding
Settings: reference: library average

Sequence | relative binding free energy [kcal/mol]
CGCAACACGTGAGGGG | 0.27
TTGTACACGTGGGGCA | -0.27
TGTACCACGTGTGTGA | -0.08
ATGGTCACGTGGTGGA | 0.03
TTCTTCACGTGAGAGT | 0.34
AAATTCACGTGGTAGG | 0.18
GCGGTCACGTGGGTCT | 0.06
TGTTACACGTGAGCGG | 0.17
GTCAGCACGTGAGTTG | 0.19
TATCGCACGTGGTATG | -0.25
TACATCACGTGGTTGT | 0.06
GTGATCACGTGGTTAA | 0.18
GTTCGCACGTGCGGGC | -0.02
AGGGTCACGTGGATGA | 0.16
GGCAGCACGTGTGAAG | 0.09
AGGTGCACGTGTCGGA | 0.05
GTTCGCACGTGTGCTA | 0.11
CTGTTCACGTGTTTCA | 0.26
TCGGGCACGTGGTGGC | -0.1
TCTGTCACGTGCAGGG | 0.06
TTGCACACGTGAGATG | 0.34
TGTGTCACGTGTGAAA | 0.23
TGCAGCACGTGATGGG | 0.09

Sequence | relative binding free energy [kcal/mol]
TTGGCCACGTGATTTT | 0.1
GGTGACACGTGTTACG | 0.13
AGATGCACGTGATGCT | 0.08
TTTGCCACGTGGTCGG | -0.19
AGAGGCACGTGTATAA | -0.06
TGGTGCACGTGTTTGG | 0.02
CTGGGCACGTGATATT | 0.01
GCGGTCACGTGGGGTA | 0.02
GTAGGCACGTGGCTTA | -0.15
TGGGGCACGTGATCCG | -0.06
GTTGTCACGTGAGGCC | 0.4
TGATTCACGTGATTGG | 0.23
ACATTCACGTGAGTTG | 0.32
TAGTCCACGTGGAGTG | -0.01
GTCGGCACGTGTGGTG | 0.06
ATCTTCACGTGTCGGT | 0.14
AGGGGCACGTGTAATA | 0.02
CTTGGCACGTGCTGGC | 0.03
ATGATCACGTGAGTGA | 0.36
TCAGGCACGTGTAATT | 0.07
GAGGACACGTGGTGTT | -0.01
AGATACACGTGGGGTT | -0.1
CGGATCACGTGGTGCG | 0.04

Sequence | relative binding free energy [kcal/mol]
AGGATCACGTGTGGAA | 0.15
TCGGGCACGTGATATG | -0.11
AATTGCACGTGAATGG | 0.26
AGATTCACGTGATGGG | 0.34
AGGTGCACGTGCGGCA | -0.08
TATGGCACGTGTGGGA | -0.04
GATGTCACGTGGAGTT | 0.1
GAATGCACGTGGAATT | 0.05
ACTGACACGTGTTGAG | 0.19
GTTGTCACGTGAAGGA | 0.29
GAAGGCACGTGTGTGA | -0.05
AGTAGCACGTGTGTCA | -0.04
TGGATCACGTGGAATT | 0.3
ATGCTCACGTGTGGTG | 0.14
GTAGTCACGTGCCGGT | 0.09
TGTATCACGTGCAGTA | 0.01
TGACGCACGTGAGGAT | 0.15
TTACTCACGTGTGATT | 0.25
ATGGGCACGTGAAATG | 0.21
GTTACCACGTGTTGGG | 0.03
AGGCACACGTGGTGAG | -0.04
TGCTACACGTGGTGGT | 0.03
GTTAGCACGTGATAGT | 0.13

Sequence | relative binding free energy [kcal/mol]
AGTTGCACGTGCTGGG | -0.02
TTTTCCACGTGATTAG | 0.2
TAGTCCACGTGGGGTC | -0.1
AGATTCACGTGGGCGG | 0.23
TGCTACACGTGTAGGA | 0.14
TTCATCACGTGAGTTT | 0.44
TTAGACACGTGCGATG | 0.04
TGGTCCACGTGTGGGC | 0.04
TATATCACGTGTTAGT | 0.16
TCTTGCACGTGAGAGT | 0.13
TGCTACACGTGACGGG | 0.32
AGTAGCACGTGGGACT | -0.08
TTGTTCACGTGTACTA | 0.14
TTGGTCACGTGTAATC | 0.34
CGGTGCACGTGCGGGC | -0.01
TTGCACACGTGGCGGT | -0.14
GCGTGCACGTGGGGGA | -0.18
GAGCGCACGTGAAGGG | 0.15
CGTTTCACGTGTCTTT | 0.23
TGTTACACGTGATGGC | 0.34
CATGGCACGTGGGTTA | -0.14
TCTTGCACGTGTGCTT | 0.03
ATAGTCACGTGTTTTT | 0.06

Sequence | relative binding free energy [kcal/mol]
GGTAGCACGTGAGAGC | 0.27
GTAAACACGTGGGAAT | -0.01
GGGGACACGTGGAAAT | 0.26
GGTGGCACGTGAAAGT | 0.26
TGTTCCACGTGTCGTG | 0.04
TATCGCACGTGGTGGG | -0.08
CTAGTCACGTGGAGGT | -0.02
TTGTTCACGTGTTTGA | 0.35
CGCAGCACGTGGGAGT | -0.05
TAAGTCACGTGGGTGT | -0.05
AGCTGCACGTGGCGGG | -0.12
GTGAACACGTGTTAAG | 0.14
GTCATCACGTGAGGGG | 0.44
TATGGCACGTGATGCT | 0.15
TTACACACGTGATTGT | 0.1
GAGGCCACGTGTAGTT | 0.09
CTTTGCACGTGGGGCT | -0.16
TTGTGCACGTGTGCCT | -0.08
CTAGTCACGTGATTGG | 0.27
TGTGACACGTGCTGGA | -0.06
GTGATCACGTGGGGCG | 0.06
GGAGGCACGTGTTTAG | -0.11
GGTGTCACGTGTGAAA | -0.01
